Over roughly 33,000 sequences, “E-score (-0.5 to 0.5)” has its median near -0.056; the highest 2% begin near 0.38. The list shows a part of the results.
The sequences below were run against Stb4 (UniProt P50104) (assay: PBM E-score (8-mer binding enrichment) (E-score (-0.5 to 0.5)); higher = stronger / more preferred TF binding; most listed sequences are background and not binding sites). Settings: protein concentration: 200 nM; construct: GST-DNA-binding domain.
Outline: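 The E-score, a modified Wilcoxon-Mann-Whitney statistic, was computed by the Universal PBM Analysis Suite for every ungapped eight-base word pooled with its reverse complement. Scans behind it were normalised with masliner after bound GST-tagged yeast transcription factors were detected with fluorescent anti-GST. The proteins, at about 100-200 nM, had been applied to universal all-10-mer Agilent arrays made double-stranded by primer extension.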

Row | Sequence | PBM E-score
1 | ATAACAGC | -0.148
2 | CTCTCAAA | -0.213
3 | GGTAAGGA | -0.164
4 | ATTGCTTG | -0.318
5 | CGTCCACC | -0.101
6 | AAAACAAT | -0.0733
7 | GTGCCAAC | -0.0389
8 | TAAACTTA | -0.0974
9 | CTGTTTCA | -0.162
10 | ATGGGAGA | -0.232
11 | GGAGAACC | 0.0794
12 | AGGCGCGG | 0.0899
13 | AAAATCGT | 0.047
14 | CAGAGCGC | -0.233
15 | AGATCCAT | 0.00399
16 | CTGTCTCA | -0.116
17 | CAATATCC | 0.333
18 | AGGGCCAC | -0.252
19 | AGTGCGGA | 0.291
20 | CCGGCTCC | 0.306
21 | GTTCGACA | -0.132
22 | ACGTAATG | 0.0114
23 | AGCTTTGG | -0.119
24 | AAACAGAT | -0.0667
25 | AGGGTCCC | -0.0218

Row | Sequence | PBM E-score
26 | ATCCCTGA | -0.189
27 | GCGAAGCC | -0.147
28 | CCGAAAAG | 0.384
29 | AACAACGC | -0.19
30 | CGGTCCAG | -0.0508
31 | ATATATGA | -0.0862
32 | AGCCTAAT | -0.149
33 | AATATTAA | 0.156
34 | GACGTACC | -0.0237
35 | ACGCTAGG | -0.217
36 | CTTTCGTA | -0.177
37 | GCCAGGCA | 0.0465
38 | CACCCTTA | -0.0807
39 | ACGTCAAA | -0.137
40 | GTATGATA | -0.0653
41 | CGGGTACC | 0.312
42 | ATCCGTCC | 0.296
43 | GAAACTTC | 0.119
44 | ATTTCCAC | -0.144
45 | ATTAAAGG | -0.0527
46 | AGCTCTTG | -0.233
47 | CCCTTACC | -0.174
48 | ACGAACCG | 0.0475
49 | AGTGCTGA | -0.235
50 | ACGGCGGC | -0.0767

Row | Sequence | PBM E-score
51 | AGCGTGAC | -0.032
52 | CAGGAACC | 0.0901
53 | CTCTTCCC | -0.0672
54 | CACGTCAA | -0.174
55 | ATATCCAT | -0.0245
56 | AATTGGTC | -0.0601
57 | AGATCTAT | -0.131
58 | ACGCCATG | -0.308
59 | AAGCTTGG | -0.154
60 | AACCACCT | 0.214
61 | CGCTGGTA | -0.264
62 | AGGAGGAA | -0.166
63 | AACTAGTC | -0.207
64 | ATACTGGG | -0.128
65 | AACGATCG | 0.0115
66 | ACCCAAGT | -0.111
67 | AAGGGGGA | -0.0311
68 | AGGTCTTG | 0.0433
69 | CGGAGGAA | 0.273
70 | TGGCAACA | -0.324
71 | ATTGTATA | 0.136
72 | CAACAGGC | -0.18
73 | AATCCAGT | -0.0778
74 | TATTTCAA | -0.231
75 | CCTTAGGA | -0.117

Row | Sequence | PBM E-score
76 | ACCGTTTG | -0.109
77 | AGGGGTCC | -0.0921
78 | AGGGCCCC | -0.174
79 | CGCCCAGA | -0.135
80 | TGAGCGCA | -0.235
81 | CCTGGCGA | -0.204
82 | TACCGTCA | 0.107
83 | AAAGTTGC | 0.012
84 | TAGCTCAA | -0.234
85 | AAGTATCG | 0.0466
86 | CCCAGCCC | -0.133
87 | CCGCTAAA | 0.0917
88 | GGATCCAA | 0.24
89 | CGCGGAAG | 0.357
90 | GCATTGCC | 0.0539
91 | GGAACGTA | 0.111
92 | AATAACTC | -0.0405
93 | ACCGGTGC | 0.163
94 | AATAGTTC | 0.0889
95 | TTGCACAA | -0.231
96 | CGATCATC | 0.0839
97 | AAGGCGGT | -0.187
98 | AGGCTAGG | -0.293
99 | AGCATGTG | -0.257
100 | TACGCGAA | -0.0547

Row | Sequence | PBM E-score
101 | CATGATGA | -0.115
102 | ATATTCAG | -0.0357
103 | CCCACCAG | 0.0126
104 | ATGAGTCA | -0.329
105 | AATCAGGG | -0.3
106 | ACGGGACG | 0.148
107 | GTCAGCGA | -0.138
108 | GCACCCCA | -0.0865
109 | ATGAATTG | -0.117
110 | AGGTCTAA | -0.0189
111 | ACATGCCC | 0.0171
112 | ACAATCGC | 0.105
113 | CCCGTAGA | 0.0742
114 | ACCACGGT | -0.239
115 | CAAGTCCG | 0.235
116 | AAATATGT | 0.121
117 | AAAATACT | 0.106
118 | CAATAGAC | -0.113
119 | GAGAGGGA | -0.252
120 | ATCCCTAC | 0.00797
121 | AGCTAACA | -0.168
122 | AGGCCAAT | -0.0819
123 | CCGTTAGG | -0.0244
124 | ACATCCCA | -0.0846
125 | GACGCCCA | -0.0691

Row | Sequence | PBM E-score
126 | AACTAAGG | -0.138
127 | AAGGCGTG | -0.0449
128 | GGCTTTGA | 0.116
129 | CGACCCTC | 0.0659
130 | GAGAAGCA | -0.105
131 | CTAATAAA | -0.162
132 | AGGCGAAC | -0.0728
133 | TGTGAACA | 0.0207
134 | GTCGACAC | -0.074
135 | CATCGTAC | -0.0164
136 | TACGTAAA | -0.25
137 | CACCTTAA | -0.141
138 | GTGTTGGA | -0.162
139 | CGGGTCAA | 0.359
140 | CCAGCCCC | -0.0533
141 | TGGTCAAA | -0.0528
142 | AATTATGG | -0.148
143 | TGGGTCAA | -0.18
144 | CGACGACG | 0.0487
145 | CATCCGCA | 0.314
146 | CTTTATTA | -0.231
147 | AAACTTAT | 0.179
148 | AGGCAAGA | -0.222
149 | ATCTCTTC | 0.0477
150 | ACTCGCGC | 0.037

Row | Sequence | PBM E-score
151 | CGAAAATA | 0.153
152 | GAGAGTTA | -0.185
153 | CCATTACC | 0.132
154 | AGATCAGC | 0.0618
155 | CAAGCTAG | -0.288
156 | CGCGACGA | 0.0313
157 | AGGTCGCC | 0.00267
158 | AGAGTAGA | -0.0101
159 | CAAACACA | -0.0699
160 | CACGTTCC | 0.0197
161 | ATGAAGCG | -0.113
162 | ACCGGTTC | 0.216
163 | CATCTAGC | -0.257
164 | CCAATGGG | -0.161
165 | AGACCTTA | -0.0348
166 | TATAATAA | 0.0527
167 | TTTCCAAA | 0.00512
168 | AGATTACG | 0.14
169 | AATTTATG | 0.165
170 | CACGGCCG | 0.225
171 | GATTTTGA | 0.15
172 | CATACGCA | 0.02

From the supplement of paper PMC3334620
